Results from US20030109503A1, “Pharmaceutical formulations comprising clavulanic acid alone or in combination with other beta-lactam antibiotics” (SmithKline Beecham p.l.c., priority 1995, published 2003).

System: S. pneumoniae N1387

CC1(C)S[C@@H]2[C@H](NC(=O)[C@H](N)c3ccc(O)cc3)C(=O)N2[C@H]1C(=O)O [Amoxycillin, amoxycillin]
lung bacterial counts versus non-treated control group at 96 h (further study (FIG. 2), amoxycillin 200 mg/kg oral q12 h, 96 h): not significantly different from those in the non-treated control group
lung bacterial counts versus non-treated controls at 72 h (initial study (FIG. 1), infection 7.0 log 10 cfu per rat, two days of twice-daily therapy, 72 h): not significantly different from those in the non-treated control group
